This is an account of results in a collection of fitness landscapes (doi:10.1038/s41467-024-54723-y).

Whole data set: some 18,000 sequences, median “TetR repression strength (sort-seq, GFP reporter)” near 0.23, cut for the highest 2% near 0.68. Some of the results follow.

This assay deals with TetR (class B, Tn10) (UniProt P04483). Description: TetR repression strength (sort-seq, GFP reporter) (relative to tetO2 = 1); higher = stronger repression. As to conditions: E. coli. In a few lines: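 Repression strength was calculated by subtracting the read-weighted mean bin from the top bin index plus one and dividing by the unaltered operator's value. The plasmid library was low-copy in E. coli SIG10-MAX, with eight randomized operator positions between a constitutive promoter and sfGFP and constitutive TetR. Cultures grew 5 h at 37 °C in LB containing 50 µg/mL chloramphenicol before 10^6 cells were sorted by FACS into 13 fluorescence bins, each sequenced on Illumina. Three independent transformations were averaged for members having ≥30 reads in all replicates and a CV ≤0.5.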
UniProt P04483, sequence (P04483 whole entry): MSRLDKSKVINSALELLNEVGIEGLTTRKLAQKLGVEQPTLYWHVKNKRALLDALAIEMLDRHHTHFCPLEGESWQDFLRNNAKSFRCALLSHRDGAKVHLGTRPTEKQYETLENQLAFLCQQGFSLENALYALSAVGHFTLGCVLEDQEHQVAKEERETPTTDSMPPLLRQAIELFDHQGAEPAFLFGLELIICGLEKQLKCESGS
For TCCCACGGAGTATAAGAGA, the TetR repression strength amounted to 0.314.

As to TCCCTTATAGTACCTGAGA, the TetR repression strength worked out at 0.196.

Sequence TCCCCCACAGTTACTGAGA yielded a TetR repression strength of 0.0281.

With TCCCAGGGAGTGTTGGAGA, the TetR repression strength came out at 0.256.

The sequence TCCCGGAAAGTAGGCGAGA registered a TetR repression strength of 0.0444.

On to TCCCTAGAAGTCGCTGAGA, for which the TetR repression strength amounted to 0.359.

In the case of TCCCTGGCAGTGTAGGAGA, the TetR repression strength worked out at 0.15.

For TCCCTTACAGTGCGGGAGA, the TetR repression strength worked out at 0.155.

In the case of TCCCGAGTAGTATGGGAGA, the TetR repression strength was found to be 0.156.

As to TCCCCCGGAGTCTAGGAGA, the TetR repression strength stood at 0.0199.

With TCCCTAGAAGTTGCTGAGA, the TetR repression strength is 0.226.

TCCCGTGAAGTTGTGGAGA: the TetR repression strength is 0.202.

On to TCCCGTCTAGTCTACGAGA, for which the TetR repression strength stood at 0.0447.

In turn, TCCCTGGAAGTAAGAGAGA yielded a TetR repression strength of 0.42.

TCCCCGGCAGTACGCGAGA registered a TetR repression strength of 0.399.

TCCCAATAAGTCGGGGAGA returned a TetR repression strength of 0.208.

The sequence TCCCGATAAGTCGCGGAGA had a TetR repression strength of 0.402.

TCCCGTAAAGTGACTGAGA yielded a TetR repression strength of 0.214.

For TCCCGACTAGTGTTAGAGA, the TetR repression strength amounted to 0.265.

TCCCGGGAAGTCGCGGAGA gave a TetR repression strength of 0.0975.

TCCCTTTGAGTATAGGAGA displayed a TetR repression strength of 0.14.

Turning to TCCCTTCCAGTGGGAGAGA, the TetR repression strength amounted to 0.151.

For the sequence TCCCGAGTAGTCGGCGAGA, the TetR repression strength turned out to be 0.104.

For the sequence TCCCCGTGAGTGCACGAGA, the TetR repression strength stood at 0.174.

Sequence TCCCTGCCAGTTGACGAGA yielded a TetR repression strength of 0.189.

For TCCCAGACAGTGTCTGAGA, the TetR repression strength was found to be 0.132.

TCCCTCTCAGTGCTAGAGA: the TetR repression strength came out at 0.599.

Take TCCCTTGTAGTGCGAGAGA: the TetR repression strength was found to be 0.233.

As to TCCCAGGGAGTATATGAGA, the TetR repression strength was determined as 0.44.

TCCCTTTGAGTTTGTGAGA showed a TetR repression strength of 0.188.

TCCCGGTGAGTGGTGGAGA displayed a TetR repression strength of 0.107.

As to TCCCACCAAGTTTTGGAGA, the TetR repression strength stood at 0.266.

In turn, TCCCGCAGAGTCTAGGAGA returned a TetR repression strength of 0.185.

For TCCCAGGTAGTATTCGAGA, the TetR repression strength stood at 0.17.

TCCCACGGAGTGCGAGAGA registered a TetR repression strength of 0.237.

TCCCTGGCAGTGGCCGAGA registered a TetR repression strength of 0.225.

Consider TCCCTATGAGTGTGGGAGA, for which the TetR repression strength came out at 0.223.

TCCCAACCAGTGACTGAGA gave a TetR repression strength of 0.27.

In turn, TCCCAAAGAGTGCATGAGA displayed a TetR repression strength of 0.207.

In turn, TCCCGGCCAGTCGGGGAGA returned a TetR repression strength of 0.331.

TCCCTGCTAGTCCGGGAGA had a TetR repression strength of 0.334.

As to TCCCGAAAAGTATTGGAGA, the TetR repression strength amounted to 0.207.

In turn, TCCCCCGCAGTTGTGGAGA displayed a TetR repression strength of 0.119.

With TCCCCGGGAGTTGGTGAGA, the TetR repression strength is 0.276.

The sequence TCCCCAAGAGTACCCGAGA showed a TetR repression strength of 0.261.

As to TCCCTTTAAGTAAGTGAGA, the TetR repression strength was 0.247.

The sequence TCCCAGTGAGTGTTCGAGA had a TetR repression strength of 0.277.

Turning to TCCCAGGAAGTATGCGAGA, the TetR repression strength came to 0.304.

Turning to TCCCTCTAAGTGTGGGAGA, the TetR repression strength turned out to be 0.266.

Sequence TCCCATTTAGTGTTCGAGA gave a TetR repression strength of 0.119.

In the case of TCCCGTGGAGTTTACGAGA, the TetR repression strength came out at 0.145.

The sequence TCCCAAGGAGTAGGTGAGA displayed a TetR repression strength of 0.182.

Regarding TCCCACCCAGTGCGAGAGA, the TetR repression strength turned out to be 0.306.

As to TCCCTGAGAGTCATTGAGA, the TetR repression strength came out at 0.112.

As for TCCCAGCGAGTCGTAGAGA, the TetR repression strength is 0.232.

Take TCCCGTGCAGTTCCAGAGA: the TetR repression strength came out at 0.226.

TCCCAGGTAGTCGGCGAGA yielded a TetR repression strength of 0.113.

For TCCCCGCCAGTCTAGGAGA, the TetR repression strength is 0.681.

As to TCCCACGGAGTTAGTGAGA, the TetR repression strength came out at 0.352.

TCCCGACAAGTCATTGAGA had a TetR repression strength of 0.329.

TCCCACGAAGTTCGAGAGA: the TetR repression strength is 0.258.

As to TCCCTGGGAGTACAGGAGA, the TetR repression strength was determined as 0.192.

With TCCCAGGTAGTTATGGAGA, the TetR repression strength stood at 0.319.

As for TCCCCCTTAGTGGAGGAGA, the TetR repression strength was 0.243.

On to TCCCGTGGAGTTCGTGAGA, for which the TetR repression strength turned out to be 0.292.

In turn, TCCCGTTAAGTAGGCGAGA showed a TetR repression strength of 0.23.

As for TCCCGAGCAGTGGGGGAGA, the TetR repression strength was 0.178.

Take TCCCGGGGAGTAAGAGAGA: the TetR repression strength was determined as 0.106.

TCCCTTTTAGTATACGAGA registered a TetR repression strength of 0.242.

For TCCCGTAAAGTGCAGGAGA, the TetR repression strength turned out to be 0.213.

The sequence TCCCATGGAGTGCTGGAGA had a TetR repression strength of 0.407.

TCCCTCCGAGTCGGAGAGA had a TetR repression strength of 0.185.

Take TCCCTCAGAGTTGCGGAGA: the TetR repression strength came to 0.199.

Turning to TCCCGTGGAGTCACTGAGA, the TetR repression strength was found to be 0.171.

Sequence TCCCTGGCAGTGCGCGAGA yielded a TetR repression strength of 0.135.

As to TCCCCTTCAGTATGGGAGA, the TetR repression strength is 0.214.

For the sequence TCCCCTATAGTTGGAGAGA, the TetR repression strength was 0.137.

Take TCCCTAATAGTCAACGAGA: the TetR repression strength was 0.444.

Regarding TCCCTATAAGTAGCGGAGA, the TetR repression strength was 0.217.

As for TCCCATTAAGTCAATGAGA, the TetR repression strength was determined as 0.42.

Consider TCCCGTGGAGTCGTCGAGA, for which the TetR repression strength came to 0.253.

The sequence TCCCAACAAGTGATTGAGA displayed a TetR repression strength of 0.442.

On to TCCCAGCTAGTGACCGAGA, for which the TetR repression strength came out at 0.694.

TCCCTGGAAGTCATTGAGA had a TetR repression strength of 0.197.

In the case of TCCCAGACAGTGGGTGAGA, the TetR repression strength worked out at 0.279.

For TCCCGCAAAGTCCTCGAGA, the TetR repression strength is 0.514.

For the sequence TCCCCTTAAGTTCGGGAGA, the TetR repression strength was 0.0495.

Sequence TCCCGATAAGTTGTCGAGA gave a TetR repression strength of 0.166.

With TCCCGTCGAGTATTAGAGA, the TetR repression strength came to 0.317.

Sequence TCCCGGATAGTGCATGAGA registered a TetR repression strength of 0.144.

Regarding TCCCGTCAAGTTCGGGAGA, the TetR repression strength came out at 0.155.

The sequence TCCCCAAAAGTCTGGGAGA came in with a TetR repression strength of 0.239.

On to TCCCGATTAGTAAACGAGA, for which the TetR repression strength was 0.247.

TCCCCTCGAGTCAGGGAGA displayed a TetR repression strength of 0.221.

For the sequence TCCCGCGGAGTGTACGAGA, the TetR repression strength is 0.18.

TCCCGGGAAGTGGCGGAGA gave a TetR repression strength of 0.139.

TCCCCGAGAGTGGGAGAGA: the TetR repression strength amounted to 0.196.

With TCCCTAGTAGTATAAGAGA, the TetR repression strength is 0.0853.

Take TCCCAATTAGTCACAGAGA: the TetR repression strength came to 0.358.

In turn, TCCCGGGAAGTTACCGAGA had a TetR repression strength of 0.207.

Take TCCCTCGAAGTAAGTGAGA: the TetR repression strength turned out to be 0.296.

As for TCCCTAGGAGTCCTTGAGA, the TetR repression strength came to 0.227.

Consider TCCCAATCAGTGAACGAGA, for which the TetR repression strength was 0.613.

With TCCCAGACAGTGTTAGAGA, the TetR repression strength came to 0.303.

Regarding TCCCATAAAGTTCAAGAGA, the TetR repression strength is 0.224.

Sequence TCCCTTGGAGTCGCCGAGA gave a TetR repression strength of 0.404.

Sequence TCCCAGTCAGTCGGGGAGA showed a TetR repression strength of 0.776.

With TCCCAAGGAGTCGGGGAGA, the TetR repression strength was 0.212.

As for TCCCAACCAGTCCTTGAGA, the TetR repression strength worked out at 0.346.

Consider TCCCATTTAGTTACGGAGA, for which the TetR repression strength was 0.16.

The sequence TCCCGACGAGTATCGGAGA showed a TetR repression strength of 0.0681.

TCCCCTTAAGTGTGCGAGA registered a TetR repression strength of 0.448.

For TCCCTGGGAGTGCGAGAGA, the TetR repression strength was 0.303.

As for TCCCGGATAGTATTGGAGA, the TetR repression strength turned out to be 0.311.

For the sequence TCCCCGCAAGTCGTGGAGA, the TetR repression strength worked out at 0.212.

Take TCCCTGCAAGTATGTGAGA: the TetR repression strength was found to be 0.33.

As for TCCCGGATAGTCTCCGAGA, the TetR repression strength turned out to be 0.18.

In turn, TCCCCTATAGTACCTGAGA registered a TetR repression strength of 0.263.

On to TCCCCAAAAGTTACGGAGA, for which the TetR repression strength amounted to 0.153.

Sequence TCCCGTTAAGTGGGGGAGA came in with a TetR repression strength of 0.198.

Sequence TCCCTCAGAGTGTAGGAGA had a TetR repression strength of 0.181.

In turn, TCCCTGGAAGTGGTTGAGA came in with a TetR repression strength of 0.183.

For the sequence TCCCTTGGAGTGTTGGAGA, the TetR repression strength was 0.257.

Take TCCCTCGGAGTGCGCGAGA: the TetR repression strength was 0.252.

Turning to TCCCAGAAAGTACCTGAGA, the TetR repression strength amounted to 0.

Consider TCCCTGATAGTGATCGAGA, for which the TetR repression strength came to 0.362.

In the case of TCCCCGAAAGTCTTCGAGA, the TetR repression strength turned out to be 0.2.

As for TCCCGGCAAGTGGACGAGA, the TetR repression strength was 0.211.

On to TCCCCACGAGTGAACGAGA, for which the TetR repression strength turned out to be 0.433.

Consider TCCCTTTGAGTCCGGGAGA, for which the TetR repression strength is 0.253.
